Source: ChEMBL document CHEMBL4888484, “Replenishing the malaria drug discovery pipeline: Screening and hit evaluation of the MMV Hit Generation Library 1 (HGL1) against asexual blood stage Plasmodium falciparum ,using a nano luciferase reporter read-out” (2022)
Hit rate of the full screen: of about 150,000 compounds, about 540 (0.36%) showed an effect of 50% or more. This is one part of the list.

The molecules below were run on Plasmodium falciparum (assay: Primary screen in NF54 nanoGlo assay, in single point, at 2uM, 72h; a lower Z score goes with more inhibition). Conditions: timepoint 72 hour.
Assay type: functional, Erythrocyte
In the case of `CN(CCc1ccnn1C)Cc1cc(F)ccc1Br`, the “% Inhibition” value is reported as 6% and the Z score is reported as -0.76. For `O=C(NCCc1ccc2c(c1)OCCO2)[C@H]1CCCN(S(=O)(=O)c2cccs2)C1`, the “% Inhibition” value was 11% and the Z score was -1.26. With `Cc1c(NC(=O)Cn2cnc(C#N)n2)c(=O)n(-c2ccccc2)n1C` the “% Inhibition” value was -4% and the Z score was 0.61. For `O=c1sc2ccccc2n1/C=C/c1ccccc1`, the “% Inhibition” value was 3% and the Z score was -0.49. With `Cc1ccc(F)c(CNC(=O)CCc2cn[nH]c2)c1F` the “% Inhibition” value was -7% and the Z score was 0.97. In the case of `O=C(NC[C@H]1CCCS1(=O)=O)c1ccc(C(F)(F)F)[nH]1`, the “% Inhibition” value is reported as 5% and the Z score is reported as -0.46. For `CCN1CCN(C(C)(C)CNC(=O)[C@@H](c2ccccc2C)N(C)C)CC1`, the “% Inhibition” value was -11% and the Z score was 1.37. With `Cc1ccc2nc(CN3C[C@@H]4CC[C@H]3CN(S(=O)(=O)N(C)C)C4)cn2c1` the “% Inhibition” value was -6% and the Z score was 1.2. In the case of `O=C(Nc1ccccc1-c1cc(F)c(F)c(F)c1)c1ccn2ccnc2c1`, the “% Inhibition” value is reported as 5% and the Z score is reported as -0.46. With `CC1CCC(C(=O)Nc2cccnc2)O1` (stereo unspecified) the “% Inhibition” value was -12% and the Z score was 1.59. `Cc1ccc([C@H](C)NC(=O)c2cc(CN3CCC(O)CC3)on2)cn1` was tested, and the “% Inhibition” value was 0% and the Z score was -0.04. `C=CCNC(=O)Cn1c(-c2ccccc2)nn(-c2ccccc2Cl)c1=O` was tested, and the “% Inhibition” value was 6% and the Z score was -0.75. With `C[C@H](Nc1nc2ccccc2o1)C(=O)N1CCCCC1` the “% Inhibition” value was -9% and the Z score was 0.85. With `Fc1ccc(-c2csc(N3C[C@@H]4NCCO[C@H]4C3)n2)cc1` the “% Inhibition” value was 9% and the Z score was -1.7. In the case of `Cc1ccc(-n2nc(C)c([C@@H]3C=C[C@@H](NCc4ccc(F)cc4)C3)c2C)cc1Cl`, the “% Inhibition” value is reported as 30% and the Z score is reported as -3.39. In the case of `Cc1ccccc1-c1nnc([C@@H]2CCCO2)o1`, the “% Inhibition” value is reported as -8% and the Z score is reported as 1.11. With `CNc1nc2c(s1)C(=O)NC(C)(C)C2` the “% Inhibition” value was -5% and the Z score was 0.47. With `CCC(CC)c1nnc(NC(=O)Nc2ccn(C)n2)s1` the “% Inhibition” value was 8% and the Z score was -0.99. With `CC(C)c1nnc2n1CCN(C(=O)c1cnc(C(C)(C)C)nc1)[C@H]2C` the “% Inhibition” value was -19% and the Z score was 1.58. With `FC(F)c1c2c(nn1-c1nc3ccccc3s1)CCCCC2` the “% Inhibition” value was -33% and the Z score was 3.85. With `COCCN(CC(=O)Nc1cc(N2CCN(C(=O)NC(C)C)CC2)ccc1Cl)C(=O)c1ccc(Cl)cc1` the “% Inhibition” value was -16% and the Z score was 1.73. With `C[C@@H](C(=O)NCC1(OCCO)CCOCC1)c1ccccc1` the “% Inhibition” value was -9% and the Z score was 1.57. With `Cc1ccc(NC(=O)c2cccc(-n3cccn3)n2)cc1-c1ncco1` the “% Inhibition” value was -20% and the Z score was 3.21. `O=C(Nc1ccc(F)cc1)c1coc(CN2CCN(C[C@@H](O)CN3CCCCC3)CC2)n1` was tested, and the “% Inhibition” value was -1% and the Z score was 0.2. With `O=S1(=O)CC(O)C(NCCC(c2ccccc2)c2ccccc2)C1` (stereo unspecified) the “% Inhibition” value was -13% and the Z score was 1.68. For `COCC1CCN(C(=O)[C@@H]2CN(c3cnccn3)C[C@H]2COC)CC1`, the “% Inhibition” value was -8% and the Z score was 1.27. `O=C(Nc1ccc(-c2ccccn2)cn1)c1ccc2[nH]cnc2c1` was tested, and the “% Inhibition” value was 5% and the Z score was -0.44. With `O=C(NCC12CC(CO1)C2)Nc1cc(Cl)c(OCC(F)(F)F)c(Cl)c1` the “% Inhibition” value was -8% and the Z score was 1.06. `Cc1cc(C[C@H](C)Nc2nc(-c3ccccc3)nc3c2CCNC3)[nH]n1` was tested, and the “% Inhibition” value was -3% and the Z score was 0.43. In the case of `Cc1ccc2oc([C@H]3CCN(S(=O)(=O)c4ccc(F)cc4)C3)nc2c1`, the “% Inhibition” value is reported as -1% and the Z score is reported as 0.21. For `Cc1ccc(-c2nc(-c3ccc4c(c3)ncn4CCC(=O)N3CCCCCC3)no2)cc1C`, the “% Inhibition” value was -24% and the Z score was 3.16. `COc1ccc(NC(C)=O)cc1S(=O)(=O)N(CC(=O)Nc1cccc(C)c1C)C[C@H]1CCCO1` was tested, and the “% Inhibition” value was 1% and the Z score was -0.18. In the case of `CCn1cc(S(=O)(=O)NCCn2c(C)cnc2C2CCC2)cn1`, the “% Inhibition” value is reported as -5% and the Z score is reported as 0.58. In the case of `CC(C)Oc1ccc(N(C)C(=O)c2nc3cccnc3s2)cc1`, the “% Inhibition” value is reported as -3% and the Z score is reported as 0.26. With `O=C1CN(c2ccnc(C(=O)Nc3ccccc3CCC(F)(F)F)c2)CCN1` the “% Inhibition” value was -14% and the Z score was 1.63. `COc1cc(N2CCOC(C)(C)C2)ccc1NC(=O)[C@@H]1CCC(=O)N1C` was tested, and the “% Inhibition” value was 4% and the Z score was -0.75. For `FC(F)(F)c1ccc(O[C@H]2COCCN(CC3CCCC3)C2)cc1`, the “% Inhibition” value was -5% and the Z score was 0.87. With `CCC(CC)C(=O)N1CCN(c2nc3nccc(-c4ccc5c(c4)OCO5)n3n2)CC1` the “% Inhibition” value was -4% and the Z score was 0.56. `N#CCn1cccc(S(=O)(=O)N2CCCCCC2)c1=O` was tested, and the “% Inhibition” value was -12% and the Z score was 1.66. With `Cc1ccc(NS(=O)(=O)c2ccc3c(c2)C(=O)N(C)c2ncccc2O3)cc1C` the “% Inhibition” value was -10% and the Z score was 1.73. With `COc1cnc(NC(=O)Nc2cc(C3CC3C)n[nH]2)s1` (stereo unspecified) the “% Inhibition” value was 5% and the Z score was -0.94. In the case of `Cc1ccc(CN2C(=O)COC[C@H]2C(=O)NCC2CC2)cc1`, the “% Inhibition” value is reported as 1% and the Z score is reported as -0.16. With `Cc1cc(Cl)cc2c1NC(=O)C21NC(Cc2c[nH]c3ccccc23)C2C(=O)N(Cc3ccc4c(c3)OCO4)C(=O)C21` (stereo unspecified) the “% Inhibition” value was -6% and the Z score was 1.2. For `Cc1cnc(-c2cc(F)cc3cccnc23)nc1N`, the “% Inhibition” value was -3% and the Z score was 0.6. For `CCc1onc(C)c1NC(=O)NCC1=CCN(C)CC1`, the “% Inhibition” value was 5% and the Z score was -0.66. With `Cc1ccc(S(=O)(=O)Cc2nc(-c3ccc(C(=O)Nc4ccc(C)cc4Cl)cc3)oc2C)cc1` the “% Inhibition” value was 29% and the Z score was -0.64. `Cc1cc(-c2nnc(NCc3cccn3C)o2)c(C)o1` was tested, and the “% Inhibition” value was 5% and the Z score was -0.44. For `C[C@H]1C(=O)N(c2cnns2)C(=O)N1Cc1ccccc1`, the “% Inhibition” value was -13% and the Z score was 1.75. For `C=CCN1C[C@@H](C(=O)N2CCN(Cc3cc(C)cc(C)c3)C(=O)C2)CC1=O`, the “% Inhibition” value was -13% and the Z score was 2.07. In the case of `CC(NC(=O)CCC1CCCO1)c1ccc(-c2cccnc2)cc1` (stereo unspecified), the “% Inhibition” value is reported as -7% and the Z score is reported as 0.82. For `O=C(c1ccccc1)N1CCN(Cc2cnc3ncccn23)CC1`, the “% Inhibition” value was -3% and the Z score was 0.3. In the case of `CCn1nc(C)cc1C(=O)N1CCCC1C1CCCN1C` (stereo unspecified), the “% Inhibition” value is reported as -5% and the Z score is reported as 0.7. With `O=C(O)C1CC2CCCCC2N1Cc1cc(Cl)c2c(c1)OCCO2` (stereo unspecified) the “% Inhibition” value was -4% and the Z score was 0.49. With `Cc1ccnc(Oc2cccc(C(=O)NCc3cccnc3)c2)n1` the “% Inhibition” value was -7% and the Z score was 0.95. With `COCC(C)(NC(=O)N1C[C@H]2C[C@@H](O)CC[C@H]2C1)C(F)(F)F` (stereo partly specified) the “% Inhibition” value was -2% and the Z score was 0.45. For `Cc1cc(C(=O)NC(C)(C)[C@@H]2CCCCO2)oc1Br`, the “% Inhibition” value was -9% and the Z score was 1.81. For `O=C1N(CCC2CCCCC2)CCC[C@@]1(O)CN1CCC(O)CC1`, the “% Inhibition” value was -10% and the Z score was 1.47. `CC(C)C(=O)N1CC[C@]2(C1)c1nc[nH]c1CCN2CC1CCCCC1` was tested, and the “% Inhibition” value was -10% and the Z score was 1.77. For `C[C@@H](C1CC1)N(C)CC(=O)Nc1cccc(F)c1`, the “% Inhibition” value was -8% and the Z score was 1.24. `CN1CCCC2(CCN(C(=O)c3ccc4[nH]cnc4c3)CC2)[C@H]1C(=O)N1CCCC1` was tested, and the “% Inhibition” value was 6% and the Z score was -1.19. In the case of `CCC#CCN1CC[C@@]2(CCCN(CC3CCC3)C2=O)C1`, the “% Inhibition” value is reported as -10% and the Z score is reported as 1.88. With `CC(C)(C)OC(=O)[C@@H]1CCCN1c1nc(-c2ccncc2)nc2c1CCC2` the “% Inhibition” value was -1% and the Z score was 0.26. In the case of `O=S(=O)(c1ccccc1)[C@H]1CCN(S(=O)(=O)Cc2cccc(F)c2)C1`, the “% Inhibition” value is reported as -14% and the Z score is reported as 2.35. In the case of `Cc1ccc(-c2noc(CCCC(=O)N3CC[C@H](CCOc4ccc(F)cc4)C3)n2)cc1`, the “% Inhibition” value is reported as -8% and the Z score is reported as 1.56. With `CC[C@H]1C=CCN1C(=O)CCc1ccc2c(c1)OCO2` the “% Inhibition” value was -2% and the Z score was 0.26. In the case of `CCn1cc(-c2noc(CNC(=O)c3cc(-c4cccs4)nn3C)n2)cn1`, the “% Inhibition” value is reported as -19% and the Z score is reported as 2.4. With `CC1COCC(C)N1C(=O)c1cc(Br)cn1C(C)C` (stereo unspecified) the “% Inhibition” value was -3% and the Z score was 0.27. `C[C@H]1Cc2cc(NC(=O)CCN3CCCC3=O)ccc2O1` was tested, and the “% Inhibition” value was -11% and the Z score was 1.46. For `COc1cc2c(cc1C(=O)N1C[C@@H]3NC(=O)c4ncccc4OCCn4cc(nn4)CO[C@H]3C1)CCC2`, the “% Inhibition” value was -6% and the Z score was 0.71. `COc1ccc(Cl)c2c(=O)c3c([nH]c12)CCN(CC(=O)Nc1ccc(Cl)c(F)c1)C3` was tested, and the “% Inhibition” value was 3% and the Z score was -0.54. `Cc1nc(NCCn2nc(C)nc2C)c2ccsc2n1` was tested, and the “% Inhibition” value was 1% and the Z score was -0.14. With `COc1ccc(CCNC(=O)c2csc(CN(Cc3cccc(C(F)(F)F)c3)Cc3ccccc3F)n2)cc1OC` the “% Inhibition” value was -11% and the Z score was 1.05. `CC(C)CN1CCCN(C(=O)[C@@H]2Cc3ccccc3S(=O)(=O)N2)CC1` was tested, and the “% Inhibition” value was -2% and the Z score was 0.25. For `CCn1ncc(CN2CCC3(CC2)C[C@@H](C(=O)NC2CCCC2)N(C)C3=O)c1C`, the “% Inhibition” value was -5% and the Z score was 0.62. With `Cc1cnc(C(C)CNC(=O)NCCC2CCCO2)s1` (stereo unspecified) the “% Inhibition” value was 1% and the Z score was -0.09. In the case of `O=C(c1cc(Cl)c2nc3cc(Cl)ccc3n2c1)c1ccccc1O`, the “% Inhibition” value is reported as -2% and the Z score is reported as 0.29. With `Cc1oc2ncn(CCC(=O)NCCC(C)C)c(=O)c2c1C` the “% Inhibition” value was -8% and the Z score was 0.98. In the case of `CC1(C)C[C@@H]1NC(=O)c1ccc2c(c1)N=S=N2`, the “% Inhibition” value is reported as 6% and the Z score is reported as -0.96. For `CCN1CCOC[C@H]1C(=O)NCC1(CO)CC2(CCC2)C1`, the “% Inhibition” value was -1% and the Z score was 0.2. For `CC(=O)N1CC(C(=O)NCc2ccco2)CC(c2ccc(F)c(C)c2)C1` (stereo unspecified), the “% Inhibition” value was -12% and the Z score was 1.73. `Cc1nc(N2CCC[C@@]3(C2)NC(=O)NC3=O)c(Cl)cc1C#N` was tested, and the “% Inhibition” value was -8% and the Z score was 1.49. For `CC(C)NC(=O)N1CCN2[C@H](CN(C)CC2(C)C)C1`, the “% Inhibition” value was -4% and the Z score was 0.69. In the case of `CC[C@H]1c2cc(F)c(F)cc2CCN1C(=O)Cc1c(C)n[nH]c1C`, the “% Inhibition” value is reported as -7% and the Z score is reported as 0.95.
